The supplement of paper PMC10126150
Values marked as one replicate rest on one cluster of the flow cell; about a third of the high ones do not repeat.
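Note: ATP exposure 15 min at 22 °C before imaging.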

The sequences below were run on ATP (assay: switch fluorescence ratio, 500 uM ATP over buffer (Cy3 cluster intensity, sum of 5 cycles each) (fold (ratio)); higher = stronger signal-on switching upon ATP binding; sequences stand for … in TCGTCGGCAGCGTCAGATGTGTATAAGAGACAGTTTTTTTTTTTTTTTTTTTTTTTTT…TC). Conditions: aptamer strand: ATP DNA aptamer (quencher-CACCTGGGGGAGTATTGCGGAGGAAGG + anchor), 100 nM annealed; ATP concentration: 500 uM; one replicate.
Method in brief: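 The fluorescence ratio divides summed target-cycle Cy3 intensity by summed buffer-cycle Cy3 intensity for each cluster and is averaged per switch-domain sequence. Cy3-labelled switching-strand clusters on a modified Illumina MiSeq flow-cell were annealed to 100 nM quencher-labelled ATP aptamer, then imaged in selection buffer and again after 15 min with 500 uM ATP at 22 °C. Five such cycles were run, with NaOH stripping and re-annealing between them, and clusters outside 100-1000 RFU were excluded.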
CTGCTTCGTT was tested, and the switch fluorescence ratio was 0.987.
CTGCTTTTTC was tested, and the switch fluorescence ratio was 0.991.
For CTGGAAATGC, the switch fluorescence ratio was 2.04.
CTGGAACTGG was tested, and the switch fluorescence ratio was 0.985.
Sequence CTGGACAAG has a switch fluorescence ratio of 0.996.
CTGGACACGT showed a switch fluorescence ratio of 0.972.
CTGGACAGGT was tested, and the switch fluorescence ratio was 0.966.
Sequence CTGGAGGTGG has a switch fluorescence ratio of 1.05.
For CTGGCCAGGC, the switch fluorescence ratio was 1.01.
CTGGCCGTAA was tested, and the switch fluorescence ratio was 1.24.
For CTGGCCTCGG, the switch fluorescence ratio was 0.985.
Work on CTGGCGCTCA yielded a switch fluorescence ratio of 1.03.
In the case of CTGGCTAATT, the switch fluorescence ratio is reported as 1.01.
Sequence CTGGCTTGTC has a switch fluorescence ratio of 1.08.
CTGGGAAAAA showed a switch fluorescence ratio of 1.05.
Work on CTGGGACCCT yielded a switch fluorescence ratio of 1.03.
CTGGGAGCCC showed a switch fluorescence ratio of 0.969.
Work on CTGGGAGGGC yielded a switch fluorescence ratio of 1.04.
CTGGGATGGT gave a switch fluorescence ratio of 0.994.
For CTGGGGCAAT, the switch fluorescence ratio was 4.86.
CTGGGGCGAA gave a switch fluorescence ratio of 0.98.
For CTGGGGTTAG, the switch fluorescence ratio was 0.972.
CTGGGTATAT was tested, and the switch fluorescence ratio was 0.979.
In the case of CTGGGTCGCA, the switch fluorescence ratio is reported as 1.01.
With CTGGGTTCGT the switch fluorescence ratio was 0.976.
With CTGGTAACGA the switch fluorescence ratio was 1.01.
CTGGTAAGAA gave a switch fluorescence ratio of 1.03.
CTGGTAAGAT gave a switch fluorescence ratio of 1.03.
CTGGTTTAAG gave a switch fluorescence ratio of 0.981.
Work on CTGGTTTTCT yielded a switch fluorescence ratio of 1.01.
CTGTAAGTAA gave a switch fluorescence ratio of 1.04.
CTGTACGATG gave a switch fluorescence ratio of 0.997.
CTGTACGGGT gave a switch fluorescence ratio of 0.998.
CTGTATGAT was tested, and the switch fluorescence ratio was 0.979.
Sequence CTGTATTGGC has a switch fluorescence ratio of 1.04.
In the case of CTGTCCAGGA, the switch fluorescence ratio is reported as 1.01.
In the case of CTGTCGATGG, the switch fluorescence ratio is reported as 0.983.
CTGTCGGGCC showed a switch fluorescence ratio of 1.03.
CTGTCGTGGT was tested, and the switch fluorescence ratio was 1.
CTGTCTGCTA was tested, and the switch fluorescence ratio was 1.21.
In the case of CTGTGAAGGT, the switch fluorescence ratio is reported as 1.02.
Sequence CTGTGCAAG has a switch fluorescence ratio of 1.28.
For CTGTGCCTA, the switch fluorescence ratio was 1.01.
CTGTGCTGG gave a switch fluorescence ratio of 0.996.
In the case of CTGTGTTACT, the switch fluorescence ratio is reported as 1.02.
For CTGTGTTTGC, the switch fluorescence ratio was 1.01.
Sequence CTGTTAAGT has a switch fluorescence ratio of 0.925.
CTGTTAAGTG gave a switch fluorescence ratio of 0.956.
For CTGTTACGTA, the switch fluorescence ratio was 1.1.
CTGTTATAGA was tested, and the switch fluorescence ratio was 0.984.
CTGTTTATGC was tested, and the switch fluorescence ratio was 0.954.
Work on CTGTTTCACG yielded a switch fluorescence ratio of 0.972.
CTGTTTTGGC was tested, and the switch fluorescence ratio was 0.984.
Sequence CTTAAAGCTC has a switch fluorescence ratio of 1.06.
For CTTAAAGTAG, the switch fluorescence ratio was 0.964.
In the case of CTTAACACG, the switch fluorescence ratio is reported as 1.06.
CTTAAGATTC was tested, and the switch fluorescence ratio was 1.01.
CTTAAGGACA was tested, and the switch fluorescence ratio was 1.
CTTAAGGATT gave a switch fluorescence ratio of 1.04.
CTTAAGTCAG gave a switch fluorescence ratio of 0.982.
For CTTAAGTCAT, the switch fluorescence ratio was 1.
With CTTAAGTGT the switch fluorescence ratio was 1.
CTTAATAAAA was tested, and the switch fluorescence ratio was 1.03.
CTTAATATTG gave a switch fluorescence ratio of 1.03.
CTTAATCGAT was tested, and the switch fluorescence ratio was 0.993.
CTTACCACCT gave a switch fluorescence ratio of 1.32.
With CTTACCCTGG the switch fluorescence ratio was 1.11.
CTTACGCCCG gave a switch fluorescence ratio of 1.03.
CTTACTACGA was tested, and the switch fluorescence ratio was 1.41.
With CTTACTTTTA the switch fluorescence ratio was 0.988.
Work on CTTAGCCGTT yielded a switch fluorescence ratio of 0.976.
With CTTAGCTCCA the switch fluorescence ratio was 1.02.
With CTTAGGACAC the switch fluorescence ratio was 0.982.
CTTAGGAGAA showed a switch fluorescence ratio of 1.01.
CTTAGGCTGC was tested, and the switch fluorescence ratio was 0.997.
Sequence CTTAGGGAAG has a switch fluorescence ratio of 1.01.
CTTAGGGTGC was tested, and the switch fluorescence ratio was 1.04.
With CTTAGTCATA the switch fluorescence ratio was 1.02.
CTTAGTCGTC showed a switch fluorescence ratio of 1.01.
With CTTAGTTAAC the switch fluorescence ratio was 0.98.
CTTATAAGCG gave a switch fluorescence ratio of 0.982.
CTTATATGG showed a switch fluorescence ratio of 1.04.
With CTTATGCGCG the switch fluorescence ratio was 0.995.
Work on CTTATGGAAA yielded a switch fluorescence ratio of 1.01.
For CTTATGGTA, the switch fluorescence ratio was 0.995.
With CTTATTCGTG the switch fluorescence ratio was 0.989.
In the case of CTTATTTCGA, the switch fluorescence ratio is reported as 0.979.
Work on CTTCACCCAG yielded a switch fluorescence ratio of 1.76.
CTTCAGAAAG was tested, and the switch fluorescence ratio was 0.98.
In the case of CTTCATCGGA, the switch fluorescence ratio is reported as 1.05.
In the case of CTTCCAAAGA, the switch fluorescence ratio is reported as 1.04.
CTTCCGAACT gave a switch fluorescence ratio of 1.57.
CTTCCTCGAC gave a switch fluorescence ratio of 4.11.
CTTCGAACCT showed a switch fluorescence ratio of 1.85.
CTTCGGAAAT was tested, and the switch fluorescence ratio was 1.01.
With CTTCGTAGCT the switch fluorescence ratio was 1.14.
Sequence CTTCGTCGGA has a switch fluorescence ratio of 0.947.
CTTCGTCTAC was tested, and the switch fluorescence ratio was 4.67.
Sequence CTTCGTTCAG has a switch fluorescence ratio of 1.01.
Sequence CTTCTACTGG has a switch fluorescence ratio of 1.03.
For CTTCTAGCTG, the switch fluorescence ratio was 1.01.
CTTCTCTTTA was tested, and the switch fluorescence ratio was 1.
Sequence CTTCTGAGCG has a switch fluorescence ratio of 1.07.
CTTCTGTGA was tested, and the switch fluorescence ratio was 1.02.
Work on CTTCTTGGAA yielded a switch fluorescence ratio of 1.01.
With CTTGAAAACA the switch fluorescence ratio was 0.996.
CTTGAACACT gave a switch fluorescence ratio of 1.01.
Sequence CTTGAAGCGG has a switch fluorescence ratio of 1.02.
Work on CTTGAGAAGT yielded a switch fluorescence ratio of 1.01.
For CTTGAGGATG, the switch fluorescence ratio was 1.01.
CTTGAGGCAG gave a switch fluorescence ratio of 1.41.
Work on CTTGAGTCGT yielded a switch fluorescence ratio of 0.932.
Work on CTTGATACAA yielded a switch fluorescence ratio of 0.951.
In the case of CTTGATGCCG, the switch fluorescence ratio is reported as 1.04.
CTTGATGCCT showed a switch fluorescence ratio of 0.997.
CTTGATGTTA showed a switch fluorescence ratio of 1.01.
Work on CTTGATTTCC yielded a switch fluorescence ratio of 1.07.
In the case of CTTGCACATT, the switch fluorescence ratio is reported as 1.01.
CTTGCGCATA was tested, and the switch fluorescence ratio was 3.16.
Work on CTTGCTTAGA yielded a switch fluorescence ratio of 0.982.
For CTTGCTTCT, the switch fluorescence ratio was 1.04.
CTTGGAGGGC was tested, and the switch fluorescence ratio was 0.997.
CTTGGCAAG was tested, and the switch fluorescence ratio was 1.
With CTTGGCGTAT the switch fluorescence ratio was 1.02.
CTTGGGGAGG gave a switch fluorescence ratio of 1.05.
In the case of CTTGGGGTCC, the switch fluorescence ratio is reported as 0.962.
Sequence CTTGGTAAAA has a switch fluorescence ratio of 1.04.
For CTTGGTCT, the switch fluorescence ratio was 1.
For CTTGTCGGTC, the switch fluorescence ratio was 0.992.
CTTGTCTACA gave a switch fluorescence ratio of 1.
CTTGTGCAAT showed a switch fluorescence ratio of 5.77.
CTTGTGGGTA gave a switch fluorescence ratio of 0.968.
Work on CTTGTGTACC yielded a switch fluorescence ratio of 1.03.
With CTTGTGTCGG the switch fluorescence ratio was 1.
CTTGTTCAG showed a switch fluorescence ratio of 1.01.
With CTTGTTTACA the switch fluorescence ratio was 0.953.
Sequence CTTGTTTAGC has a switch fluorescence ratio of 1.01.
With CTTGTTTTCT the switch fluorescence ratio was 1.02.
For CTTTAACTCG, the switch fluorescence ratio was 1.
CTTTAAGCAT was tested, and the switch fluorescence ratio was 1.08.
CTTTACAGCG was tested, and the switch fluorescence ratio was 1.01.
CTTTATAAGG showed a switch fluorescence ratio of 1.01.
CTTTATGCCG gave a switch fluorescence ratio of 1.03.
CTTTATGTTA showed a switch fluorescence ratio of 1.
In the case of CTTTATTTA, the switch fluorescence ratio is reported as 1.03.
In the case of CTTTCAGTGA, the switch fluorescence ratio is reported as 1.
CTTTCATTCT showed a switch fluorescence ratio of 1.03.
CTTTCGAGG was tested, and the switch fluorescence ratio was 1.05.
Work on CTTTCTACAG yielded a switch fluorescence ratio of 1.04.
CTTTCTCTCC gave a switch fluorescence ratio of 1.13.
For CTTTCTGTCC, the switch fluorescence ratio was 0.973.
CTTTGAGTGC was tested, and the switch fluorescence ratio was 0.958.
In the case of CTTTGATATG, the switch fluorescence ratio is reported as 1.02.
CTTTGCCTAC showed a switch fluorescence ratio of 1.77.
Sequence CTTTGCTGGT has a switch fluorescence ratio of 0.988.
In the case of CTTTGGATGA, the switch fluorescence ratio is reported as 0.994.
CTTTGTTTCT showed a switch fluorescence ratio of 1.02.
With CTTTTAAG the switch fluorescence ratio was 1.03.
Sequence CTTTTAGAC has a switch fluorescence ratio of 0.889.
CTTTTCCAG gave a switch fluorescence ratio of 1.21.
Sequence CTTTTCCCGT has a switch fluorescence ratio of 0.993.
CTTTTCGGAT showed a switch fluorescence ratio of 0.997.
CTTTTCTGCG showed a switch fluorescence ratio of 1.04.
For CTTTTGAATA, the switch fluorescence ratio was 1.05.
CTTTTGTGCC showed a switch fluorescence ratio of 1.04.
CTTTTTGCGG showed a switch fluorescence ratio of 1.2.
GAAAAAATTC was tested, and the switch fluorescence ratio was 1.05.
GAAAAACTTT was tested, and the switch fluorescence ratio was 1.01.
For GAAAAAGCTC, the switch fluorescence ratio was 0.978.
Work on GAAAACAAGA yielded a switch fluorescence ratio of 0.927.
For GAAAACAGCC, the switch fluorescence ratio was 1.06.
GAAAATTCTG showed a switch fluorescence ratio of 0.993.
GAAACAAAGA showed a switch fluorescence ratio of 1.03.
In the case of GAAACAACGC, the switch fluorescence ratio is reported as 1.05.
With GAAACACAAT the switch fluorescence ratio was 1.03.
For GAAACGATGG, the switch fluorescence ratio was 0.99.
GAAACTTAGT gave a switch fluorescence ratio of 0.995.
Sequence GAAAGAAAAC has a switch fluorescence ratio of 1.05.
GAAAGAAGGT showed a switch fluorescence ratio of 1.08.
GAAAGAATGA gave a switch fluorescence ratio of 1.
With GAAAGACCCA the switch fluorescence ratio was 1.
Work on GAAAGATGT yielded a switch fluorescence ratio of 0.992.
GAAAGATTCG was tested, and the switch fluorescence ratio was 1.
In the case of GAAAGATTTT, the switch fluorescence ratio is reported as 1.07.
In the case of GAAAGCTTAT, the switch fluorescence ratio is reported as 1.04.
For GAAAGGTA, the switch fluorescence ratio was 1.04.
GAAAGGTAGA was tested, and the switch fluorescence ratio was 1.05.
Work on GAAAGGTGAG yielded a switch fluorescence ratio of 0.986.
With GAAAGTCATT the switch fluorescence ratio was 0.979.
Work on GAAAGTCTG yielded a switch fluorescence ratio of 0.966.
In the case of GAAAGTGCTC, the switch fluorescence ratio is reported as 0.98.
GAAATAAGGG gave a switch fluorescence ratio of 1.02.
GAAATAGTT was tested, and the switch fluorescence ratio was 0.973.
Sequence GAAATCGACA has a switch fluorescence ratio of 1.06.
Sequence GAAATCGTGC has a switch fluorescence ratio of 1.04.
For GAAATGTCCA, the switch fluorescence ratio was 1.
GAAATGTTGC was tested, and the switch fluorescence ratio was 0.953.
For GAAATTATT, the switch fluorescence ratio was 1.01.
GAAATTCGTA was tested, and the switch fluorescence ratio was 0.968.
GAAATTGCCA gave a switch fluorescence ratio of 0.979.
With GAACAAGAGG the switch fluorescence ratio was 1.02.
